42 compounds from ChEMBL document CHEMBL4888484, “Replenishing the malaria drug discovery pipeline: Screening and hit evaluation of the MMV Hit Generation Library 1 (HGL1) against asexual blood stage Plasmodium falciparum ,using a nano luciferase reporter read-out” (2022) can be followed below.

Hit rate of the full screen: of about 150,000 compounds, about 540 (0.36%) showed an effect of 50% or more. Some of the results follow.

For the experiment, the system named is Plasmodium falciparum. Nature of the experiment: Primary screen in NF54 nanoGlo assay, in single point, at 2uM, 72h; a lower Z score goes with more inhibition. It is filed as functional, Erythrocyte. As to conditions: timepoint 72 hour.
With `N#CC1(C(=O)N2CCc3ccccc3C2)CCCCC1`, the “% Inhibition” value is on record as -4% and the Z score was 0.39.
Consider `CCn1ncc(Cl)c1C(=O)Nc1ccncc1`, for which the “% Inhibition” value is on record as -12% and the Z score is reported as 1.58.
`CCOc1ccc(-c2nsc(NC(=O)c3ccco3)n2)cc1OC`: the “% Inhibition” value stood at 9% and the Z score is -1.42.
For the compound `COc1ccc(NC(=O)[C@@H]2COCCN2CC2CCC2)c(C)n1`, the “% Inhibition” value was -5% and the Z score is reported as 0.7.
Consider `Cc1occc1C(=O)N1CC2OCCN(Cc3ccccc3)C2C1` (centres undefined), for which the “% Inhibition” value is recorded as -4% and the Z score is 0.4.
For `C[C@H]1CN(C(=O)C2=CCCC2)CCC1(F)F`, the “% Inhibition” value was -17% and the Z score is given as 1.71.
In the case of `CCn1nc(C(=O)O)c2c1CC[C@H](NCc1oc3ccccc3c1C)C2`, the “% Inhibition” value came out at 1% and the Z score is reported as -0.13.
The like results for `Cc1ccc(C(=O)Oc2ccc(N(C(=O)c3ccc(C)cc3)S(=O)(=O)c3ccccc3)cc2)cc1` were, in that order, -20% and 2.62.
Consider `COc1ccc(CCNc2nc(-c3ccc(OC)cc3F)c3c(N)n(-c4ccc(Cl)cc4)nc3n2)cc1`, for which the “% Inhibition” value turned out to be 45% and the Z score was -3.7.
The like results for `CCNC(=O)N1CCN(c2nc3cc(Cl)ccc3c3nnc(-c4cccc(C)c4)n23)CC1` were, in that order, -6% and 0.92.
On to `Cn1cc([C@@H](NC(=O)OCCCF)C2(CO)CCC2)cn1`, for which the “% Inhibition” value is -2% and the Z score was 0.37.
As to `Cc1ccc(-c2nc(-c3ccc(-n4cccn4)nc3)no2)cc1`, the “% Inhibition” value is -24% and the Z score turned out to be 2.53.
For the compound `C[C@H]1COCCN1C(=O)c1cc(S(=O)(=O)C2CCCC2)ccc1F`, the “% Inhibition” value is 34% and the Z score was -3.82.
As for `O=C(Cn1c(-c2cccs2)cc2cc(F)ccc21)NCc1ccc(F)cc1`, the “% Inhibition” value worked out at 10% and the Z score is on record as -1.5.
As to `N#Cc1nc(C2CC2)oc1N1CCN(C(=O)[C@H]2CCOC2)CC1`, the “% Inhibition” value is given as -8% and the Z score is 1.02.
On the same counts, the results for `CN1CCC[C@H](CCNC(=O)c2cnnn2-c2ccccc2)C1` are 0% and 0.04.
Consider `O=C(N[C@H]1CCOC[C@@H]1OCc1ccccc1)c1ccncc1`, for which the “% Inhibition” value stood at 1% and the Z score was -0.18.
For `Cc1ccc(C(=O)N(CCCN2CCCC2=O)C2CCOCC2)cn1`, the “% Inhibition” value is -6% and the Z score came out at 0.76.
On the same counts, the results for `O=C(N[C@H](c1cncc(Br)c1)C1CC1)c1ccncc1` are 0% and -0.04.
In the case of `C[C@H]1CN(C(=O)Cn2cnc3c(c2=O)COCC3)CC(C)(C)O1`, the “% Inhibition” value is 0% and the Z score came to 0.09.
The like results for `O=C(O)Cn1nc(Cc2cccc(Cl)c2)nc1-c1ccc(CO)cc1` were, in that order, -14% and 1.43.
Take `Clc1ccc(C2(c3nnc(-c4ccccc4)o3)CCOCC2)cc1`: the “% Inhibition” value was -6% and the Z score is 1.11.
On to `O=C(Nc1ccccc1CCc1ccccn1)N1CCOC[C@@H]1CO`, for which the “% Inhibition” value is recorded as 4% and the Z score is -0.55.
On the same counts, the results for `CN1CCN(C(=O)CCc2cc3n(n2)CCN(Cc2nccn2C)C3)CC1` are -24% and 2.41.
As to `O=C(Cc1cccs1)N[C@H](c1cccs1)C1CCOCC1`, the “% Inhibition” value is recorded as -8% and the Z score is reported as 1.04.
Turning to `Cc1nc2c(c(NC[C@H]3CCCO3)n1)CCC2`, the “% Inhibition” value was -14% and the Z score is given as 1.48.
As to `N[C@H]1CC12CCC(NC(=O)Cc1coc3c(F)c(F)ccc13)CC2` (some centres undefined), the “% Inhibition” value is 0% and the Z score is -0.09.
For `CC(=O)Nc1ccc2nc(CN3CCC[C@H](N4CCc5ccccc5C4)C3)ccc2c1`, the “% Inhibition” value worked out at 1% and the Z score was -0.14.
Take `COCCC1(NC(=O)C(O)C(O)c2nc3ccccc3s2)CCC1` (centres undefined): the “% Inhibition” value came to 2% and the Z score is on record as -0.31.
`O=C(c1cn(CCN2CCOCC2)nn1)N1CCc2ccccc2C1`: the “% Inhibition” value is -6% and the Z score is given as 1.06.
Regarding `O=C(N1CCOCC1)N1CCn2nc(C3CC3)cc2C1`, the “% Inhibition” value was 17% and the Z score is recorded as -2.2.
As to `COc1cc(NC(=O)C2CCN(c3c(C)n(-c4ccccc4)c(=O)n(C)c3=O)CC2)cc(OC)c1`, the “% Inhibition” value is -6% and the Z score is 1.2.
As for `Fc1cc(OCCN2CC[C@@]3(CCCOC3)C2)ccc1Cl`, the “% Inhibition” value is listed as -5% and the Z score turned out to be 0.86.
As to `COc1ccc(CNC(=O)C[C@H]2c3ncccc3C(=O)N2c2ccccc2)c(OC)c1`, the “% Inhibition” value is -9% and the Z score turned out to be 1.77.
The like results for `CC(=O)Nc1c2n(c3ccccc13)C[C@@](C)(C(=O)NC1CCCC1)N(C1CCC(C)CC1)C2=O` (some centres undefined) were, in that order, -1% and 0.13.
Consider `CC(C)NC(=O)[C@H](C)Oc1ccccc1C(C)C`, for which the “% Inhibition” value is given as 4% and the Z score is listed as -0.4.
As to `Cc1nc([C@H](C)NC(=O)c2cn3cccc(C)c3n2)n[nH]1`, the “% Inhibition” value is reported as -5% and the Z score was determined as 0.91.
Turning to `Cc1cccc(C(=O)N2[C@H](C(=O)NCc3ccccc3)COC23CCN(C(=O)c2ccc(F)cc2)CC3)c1`, the “% Inhibition” value is on record as -5% and the Z score was determined as 0.81.
With `COc1ccc(OCc2nc(-c3ccoc3)no2)cc1F`, the “% Inhibition” value came out at 5% and the Z score is given as -0.59.
In the case of `C[C@H]1CCCN(C(=O)c2nc(-c3cnccn3)no2)C1`, the “% Inhibition” value was -19% and the Z score came out at 2.77.
The like results for `Cc1ccc(C(=O)N2CCN(c3cc(-n4cnc(C)c4C)nc(C)n3)CC2)cc1` were, in that order, -26% and 2.27.
The like results for `COCCC1(c2noc([C@H]3CCN(CC(F)(F)F)C3)n2)CCC1` were, in that order, -4% and 0.61.

The % Inhibition is the relative decrease from the control value, in per cent.
